Reference: the supplement of paper PMC10126150
Values marked as one replicate rest on one cluster of the flow cell; about a third of the high ones do not repeat.

Test system: ATP
Test: switch fluorescence ratio, 500 uM ATP over buffer (Cy3 cluster intensity, sum of 5 cycles each) (fold (ratio)); higher = stronger signal-on switching upon ATP binding; sequences stand for … in TCGTCGGCAGCGTCAGATGTGTATAAGAGACAGTTTTTTTTTTTTTTTTTTTTTTTTT…TC
Settings: aptamer strand: ATP DNA aptamer (quencher-CACCTGGGGGAGTATTGCGGAGGAAGG + anchor), 100 nM annealed; ATP concentration: 500 uM; one replicate
Summary of the method: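 Clusters carrying Cy3-labelled switching strands on a modified Illumina MiSeq flow-cell were annealed to 100 nM quencher-labelled ATP aptamer and imaged in selection buffer. They were imaged again after 15 min with 500 uM ATP at 22 °C, over five buffer/ATP cycles with NaOH stripping and re-annealing in between. For each cluster, the fluorescence ratio is the summed Cy3 intensity of the target cycles divided by that of the buffer cycles, averaged per switch-domain sequence. Clusters outside 100-1000 RFU were left out.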
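Further: ATP exposure 15 min at 22 °C before imaging.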

Row | Sequence | switch fluorescence ratio
1 | AGGCGCATGT | 1.09
2 | CTGGGAAACC | 1.01
3 | GAGTCCTGAG | 1.04
4 | ATAGTTCTAG | 1.01
5 | GGCAGGTGTG | 1.16
6 | CAATGGATGC | 1.1
7 | AGGGGTCCGA | 1.01
8 | TCGTGCCACT | 0.987
9 | AGTGCCATGA | 0.997
10 | TGACTAGTTA | 1
11 | AGCCCGAGAC | 1.31
12 | ACAAACTACG | 1.13
13 | AGATTACTTT | 1.04
14 | TATAAATAAT | 0.993
15 | TAGCTTTTGT | 1.03
16 | CCAGTATGAG | 1.05
17 | GTTCAATCCC | 1
18 | TAGCGCAGGG | 1.03
19 | GTTTGAGGAT | 1.04
20 | TGACCTCGGA | 1
21 | TTGTAAAATC | 0.994
22 | CCACGTTATT | 1.15
23 | GACCGGTTTG | 0.995

Row | Sequence | switch fluorescence ratio
24 | TTGGGACGCT | 0.975
25 | GGGTGTCATC | 0.972
26 | AGGCGGCTAA | 0.966
27 | GTAGAACTAA | 1.01
28 | ACGGGTTCGG | 1.02
29 | TGTCTCAAAC | 0.998
30 | CCTTCAGTAG | 2.61
31 | TGTATTACCG | 1.01
32 | CTGATGG | 1
33 | AATCTATGG | 0.903
34 | GAACGTCCTT | 1.06
35 | TAATTGGAAG | 0.963
36 | CTTGCGATGG | 1.34
37 | AAGTCAGACG | 1.02
38 | ATAAATAATA | 0.976
39 | AAAAGACGT | 1.03
40 | ATATGGACC | 1.06
41 | CAGCCCGTTA | 0.997
42 | TACAGTTGTC | 0.992
43 | TTCGCCGG | 0.953
44 | CTGGATTTCG | 0.973
45 | TCCACGATCA | 1.12
46 | GAGCTAGCGC | 1.08

Row | Sequence | switch fluorescence ratio
47 | TTGACTCAAC | 1.11
48 | GCCATGGAAC | 1.02
49 | TTTCCTACCT | 1.05
50 | CACAAAATCA | 1.02
51 | GAACGTTGTT | 1
52 | TCGAAACTAG | 0.989
53 | CTAATTTAAT | 0.988
54 | AGGGGTAAAC | 1.02
55 | ATTCTGACGG | 0.987
56 | GATCAATAC | 3.51
57 | TGTTTCTG | 1.01
58 | TCACTATCCT | 1.05
59 | ATACGGTGTG | 1.01
60 | TTGCCCCGCT | 1.46
61 | GACACGT | 1.01
62 | GTCGCTGGGC | 1.06
63 | TTTGACGCTG | 1.01
64 | TTGACACTTA | 1.03
65 | TGAGTTGGCC | 0.979
66 | CACCACACTA | 1.28
67 | CGGGCATGAG | 0.963
68 | AAATGATTAT | 0.988
69 | TATTCGATTG | 0.952

Row | Sequence | switch fluorescence ratio
70 | GGGCGTGCTT | 0.975
71 | ACCTATGTAT | 1.03
72 | GTGGATACCA | 0.978
73 | TTACAGGAGT | 0.965
74 | GGTACAAAGC | 0.979
75 | CCCGGATTAT | 1.08
76 | AGCAGTGATC | 1.1
77 | GACTACTAAA | 1.2
78 | GCGGCCCTTT | 1.01
79 | TTAAGTCGTA | 0.949
80 | CGTGGGTGA | 1.07
81 | GCATGTAGAC | 0.982
82 | TGCTTCACTG | 1.02
83 | CCCATGGTGA | 1.12
84 | TCGCACTCGC | 1.2
85 | AGTAGCTTAG | 0.984
86 | GCTGCGGGGC | 0.977
87 | GTTTTGATTT | 0.989
88 | CCTTTGTGAG | 0.971
89 | CGCTTCTTAA | 0.997
90 | TCTGTGTAGA | 1.02
91 | TAGCCGGGTA | 1.03
92 | TATCGTGGT | 0.972

Row | Sequence | switch fluorescence ratio
93 | ATCTCTGACC | 1.04
94 | GGCTTGATGA | 0.965
95 | CGATAGTGGG | 0.964
96 | GCTAATCTG | 0.962
97 | CGGCATCCGC | 1.5
98 | TAACAAGATG | 1.04
99 | AGTCGCTCGT | 0.985
100 | TTAACGTTAA | 1.2
101 | GCGTATTACA | 1.09
102 | ACAAGGCTGA | 0.936
103 | TAACGAGCCC | 1.08
104 | TAACGGTGCG | 1.12
105 | TTATGACTAG | 0.984
106 | GGGTACTCGA | 0.994
107 | GTTAGATGTA | 0.972
108 | ACATATTAGT | 1.01
109 | CTAGGACAGG | 1.04
110 | TCCAGTTTCG | 0.977
111 | TCCTGGAGT | 1.05
112 | CTCATTGCCA | 1
113 | CGCTCTTTAA | 1.01
114 | GCCTGCTCAC | 1.12
115 | GGGACCAAAC | 1.01

Row | Sequence | switch fluorescence ratio
116 | CCTCTCAAAA | 3.33
117 | AACCCGAAAA | 1.11
118 | GGATCTCTGG | 1.01
119 | GAGGCCTGTA | 0.978
120 | GGACTATGAC | 1.02
121 | GTTGAAAGAG | 1.02
122 | ACGTACAGTC | 1.52
123 | TTCGAGCTCC | 1.04
124 | TCCTTGGAAG | 0.996
125 | GAGCGGTAGG | 0.999
126 | TCGTGACTCA | 1.13
127 | GCCAAAGGGG | 1.05
128 | CAAGGATAAA | 0.982
129 | TCTTGATGCG | 0.951
130 | TTTTCGTTAT | 0.988
131 | ATGCAAAAGG | 0.983
132 | AGACGGCCA | 1.02
133 | CGTACGGAGC | 1.21
134 | GATACTTCGT | 1.03
135 | GCACGGAAT | 1.04
136 | CGGTCCGGAC | 0.957
137 | CACTGGTCTT | 0.991
138 | TTACCAGGAG | 1.16

Row | Sequence | switch fluorescence ratio
139 | CTGGATAGGA | 1
140 | GGAGCTGTCT | 0.989
141 | GGCGAGCGAT | 1.04
142 | GGTTTCATGC | 1
143 | GCAGGTATAT | 1.02
144 | AATGAGCCTC | 0.982
145 | AGACGATGAA | 1
146 | TAAATCTTCC | 2.65
147 | TTTTGGACAC | 0.974
148 | GGAGATGGTC | 1.01
149 | AGAGACATTA | 1.02
150 | TTGAGAGCCC | 0.959
151 | TAATGGGCTG | 1.04
152 | CGTGTAAAAA | 0.961
153 | CACTGTGCAA | 2.22
154 | GGTTTTCGCC | 1.06
155 | ATAGGCAACC | 1.07
156 | CTATGGCATA | 1.04
157 | CACATTCGG | 1.01
